# Laboratory results published in PubChem BioAssay AID624296 (National Center for Advancing Translational Sciences (NCATS), 2012).
# In all, about 350,000 compounds went through this assay and about 9,900 (2.8%) were called active. The shares of active, inactive and inconclusive entries below differ from those in the screen. Calls follow the shape of the dose curve; as a rule, active = well fitted activation curve with a large enough effect; inconclusive = small, poorly fitted or top-dose-only effect; inactive = no such curve, though single readings can be large or run the other way. Potencies of inconclusive entries are left out as doubtful fits.
# Assay: A quantitative high throughput screen for small molecules that induce DNA re-replication in MCF 10a normal breast cells. Also: nearly all actives have a fitted effect of over 50% in size.
# Settings: MCF 10A DNA re-replication, Hoechst nuclear intensity, 48 h; series mostly up to 46.1 µM
# Potency is read from the fitted curve at half-maximal effect; tags tell the direction and shape of the fitted curve.
row,SMILES,Potency
1,CC(CC(=O)Nc1ccccc1C(F)(F)F)c1ccccc1 (configuration not stated),inactive
2,Cc1cc(C)c(S(=O)(=O)Nc2cccc(S(=O)(=O)NC3=NCCC3)c2)c(C)c1,"inconclusive [activator, single point]"
3,COc1cccc(/C=N/Nc2nnc(C)n2N)c1OCc1ccccc1Cl,inactive
4,CC(NC(=O)CC(O)(C(F)(F)F)C(F)(F)F)c1ccccc1 (configuration not stated),"inconclusive [activator, full curve, poor fit]"
5,CCn1nc([N+](=O)[O-])c(C(C#N)c2nc3ccccc3n2C)c(Cl)c1=O (configuration not stated),"inconclusive [activator, single point]"
6,COc1ccc(-c2sc3cc(OC)ccc3c2-c2ccc(OCCN3CCOCC3)cc2)cc1,active: 3.66 µM
7,CN(C)Cc1c(C(=O)N/N=C/c2ccccc2OCc2c(F)cccc2Cl)nnn1-c1nonc1N,"inconclusive [activator, single point]"
8,COc1cccc(CN(C)C(=O)C2CCN(S(=O)(=O)c3ccc(C)cc3)CC2)c1OC,"inconclusive [activator, single point]"
9,CCNC(=S)N/N=C/c1ccc(OCC(=O)Nc2ccc(C)cc2)cc1,"inconclusive [activator, full curve, poor fit]"
10,CC(c1ccc(F)cc1)n1c(-c2cccs2)n[nH]c1=S (configuration not stated),inactive
11,COc1ccc(/C(N)=N/OC(=O)CSc2ccccc2)cc1OC,"inconclusive [activator, partial curve, poor fit]"
12,O=C(NCc1nc2ccccc2[nH]1)C1=C[C@@H](C2CCCCC2)C[C@@H](OCc2ccc(CO)cc2)O1,"inconclusive [activator, single point]"
13,O=S(=O)(c1cccs1)N1CCC2(CC1)OCCN2S(=O)(=O)c1ccccc1,"inconclusive [activator, single point]"
14,O=C(Nc1sc2c(c1C(=O)O)CCC2)c1ccccc1F,inactive
15,COc1ccc(NS(=O)(=O)NC(=O)c2c(C)n(C)c3ccccc23)cc1,inactive
16,Cc1cc(C)nc(Nc2n[nH]c(-c3ccc(N)cc3)n2)n1,inactive
17,CC(=O)Nc1cccc(-c2nnc(-c3ccccc3)o2)c1,inactive
18,CCn1c(SCC(=O)N2CCOCC2)nnc1C(C)NC(=O)c1ccccc1 (configuration not stated),inactive
19,CCC(c1nnnn1C1CCCCC1)N1CCN(C(=O)c2ccco2)CC1 (configuration not stated),inactive
20,CCC(C)C(Nc1ccc(C(=O)OC)cc1[N+](=O)[O-])C(=O)OC (configuration not stated),"inconclusive [activator, single point]"
21,CSc1ccc(C(=O)N2CCC(CCC(=O)NCc3ccc(F)cc3)CC2)cc1,inactive
22,CCC(Oc1ccccc1OC)C(=O)Nc1ccc2c(c1)OCO2 (configuration not stated),inactive
23,COC(=O)c1cc(NC(=S)Nc2cc(Cl)cc(Cl)c2)cc(C(=O)OC)c1,"inconclusive [activator, single point]"
24,CCN1C(=O)N(S(=O)(=O)c2ccc(C)cc2)[C@@H](c2ccccc2)C(C(=O)OC)=C1C,"inconclusive [activator, single point]"

row,SMILES,Potency
1,N#CC(C#N)=Cc1cc2ccccc2nc1N1CCCCC1,"inconclusive [activator, partial curve, poor fit]"
2,COc1ccccc1Nc1cc(C)nc2c(C)ccc([N+](=O)[O-])c12,"inconclusive [activator, single point]"
3,O=C(CSc1nnc(Cc2ccccc2)o1)c1ccc(F)cc1,"inconclusive [activator, single point]"
4,N#Cc1nc(COc2ccccc2F)oc1NCc1ccc(F)cc1,"inconclusive [activator, partial curve, poor fit]"
5,Cc1nn(C(C)C(=O)NCc2ccccc2Cl)c(=O)c2c1sc1ccccc12 (configuration not stated),"inconclusive [activator, partial curve, poor fit]"
6,CC(C)(C)OC(=O)NCc1ccc(NC(=O)c2nc[nH]c2C(=O)NCCN(CCNC(=O)c2[nH]cnc2C(=O)Nc2ccc(CNC(=O)OC(C)(C)C)cc2)CCNC(=O)c2[nH]cnc2C(=O)Nc2ccc(CNC(=O)OC(C)(C)C)cc2)cc1,inactive
7,CC(C)n1c(NCc2cc(Cl)ccc2O)nc2ccccc21,inactive
8,O=C(Nc1ccc(-n2cnnn2)cc1)c1cccc(S(=O)(=O)N2CCCC2)c1,inactive
9,CCCC(=O)N(c1ccc2oc(=O)sc2c1)S(=O)(=O)c1ccccc1,"inconclusive [activator, single point]"
10,CCCCCC(=O)Nc1cc(S(=O)(=O)N2CCOCC2)ccc1N1CCCC1,inactive
11,CNC(=O)CN1C(=O)CSc2nc(C)cc(C)c21,"inconclusive [activator, partial curve, poor fit]"
12,Cc1cc(/C=C2\SC(=S)N(C)C2=O)c(C)n1-c1cccc(O)c1,active: 13 µM
13,Cc1ccc(Nc2nc(N)nc(CC#N)n2)cc1,"inconclusive [activator, full curve, poor fit]"
14,O=Cc1c(NCCN2CCCC2)c2ccccc2[nH]c1=O,inactive
15,CN1CCN(CCNC(=O)c2ccc3nc(-c4ccc(F)cc4)c(-c4ccc(F)cc4)nc3c2)CC1,"inconclusive [activator, partial curve, poor fit]"
16,COC(=O)c1cc(S(=O)(=O)N(C)C2CCCCC2)c[nH]1,inactive
17,CCOC(=O)C1C2C=CC3(CN(CCc4ccccc4)C(=O)C13)O2 (configuration not stated),"inconclusive [activator, single point]"
18,CCOc1ccccc1CNC(=O)c1cc2oc3ccccc3c2n1CC,active: 18.4 µM
19,Cc1nc2ccc(NC(=O)c3nn(CC(C)C)c(=O)c4ccccc34)cc2s1,"inconclusive [activator, single point]"
20,CC(=NNC(=S)N(Cc1ccccn1)Cc1ccccn1)c1cnccn1,active: 4.61 µM
21,Cc1ccc(-c2csc(NC(=O)CSc3nnc4c(n3)[nH]c3ccccc34)n2)cc1,active: 16.4 µM
22,Cc1ccc(Nc2nc(-c3ccc(F)cc3)cs2)nc1,inactive
23,COc1ccc(C2=NN(c3ccccc3)C(=O)/C2=C\c2ccc(O)c(OC)c2)cc1,"inconclusive [activator, partial curve]"
24,Cc1ccn2c(-c3csc(NCc4ccccc4)n3)c(C)nc2c1,"inconclusive [activator, partial curve, poor fit]"

row,SMILES,Potency
1,Cc1cccc(OCC(=O)N/N=C/c2cccn2C)c1,inactive
2,CCC(=O)N(Cc1cccs1)C1CCOC(C)(C)C1 (configuration not stated),inactive
3,CCC12CN(S(=O)(=O)c3ccc(C)cc3)CC(CC)(CN(S(=O)(=O)c3ccc(C)cc3)C1)C2=O,"inconclusive [activator, single point]"
4,CCOc1ccccc1N1CCN(S(=O)(=O)c2ccc3c4c(cccc24)C(=O)N3)CC1,"inconclusive [activator, partial curve, poor fit]"
5,O=c1oc2ccc(NS(=O)(=O)c3cccc4cccnc34)cc2s1,"inconclusive [activator, single point]"
6,CC(=O)c1c(C)[nH]c(C(=O)CSc2nc3ccccc3n2C)c1C,"inconclusive [activator, single point]"
7,N#CC1=C(N)NC(SCc2ccccc2)=C(C#N)C12CCCCC2,active: 8.2 µM
8,CCCN(c1ccc(C(=O)OC)cc1)S(=O)(=O)c1ccccc1,"inconclusive [activator, single point]"
9,O=C(CO/N=C/c1ccc(OC(F)F)cc1)N1CCc2ccccc21,"inconclusive [activator, single point]"
10,CCCN1C(=O)c2cc(C(=O)Nc3ccccc3C)ccc2C1Nc1ccccc1C (configuration not stated),inactive
11,O=C(/C=C/c1ccccc1)N1CCN(c2c(Cl)cccc2[N+](=O)[O-])CC1,active: 25.9 µM
12,O=C(Nc1csc([N+](=O)[O-])c1)Nc1ccccc1Cl,active: 11.6 µM
13,COc1cccc(/C=N/NC(N)=S)c1OCc1cccc(Cl)c1,"inconclusive [activator, partial curve, poor fit]"
14,CO/N=C(\Cn1ncc(NC2CCCCC2)c(Br)c1=O)c1ccc(Cl)cc1,"inconclusive [activator, single point]"
15,CCN(C(=O)C(C)Sc1nnc(-c2ccncc2)n1C)C1CCCCC1 (configuration not stated),inactive
16,COc1ccc(NC(=O)O/N=C/c2ccc(N(C)C)cc2)cc1,"inconclusive [activator, partial curve, poor fit]"
17,Cc1csc(SCCn2c(N3CCN(c4ccccc4)CC3)nc3c2c(=O)[nH]c(=O)n3C)n1,"inconclusive [activator, single point]"
18,Cc1c(C)c2ccc(OC(C)C(=O)NC3CCN(Cc4ccccc4)CC3)cc2oc1=O (configuration not stated),"inconclusive [activator, single point]"
19,COc1cccc(N2CCN(C(=O)CCNS(=O)(=O)c3ccc(F)c(F)c3)CC2)c1,inactive
20,CCOC(=O)c1ccc(S(=O)(=O)NCCNCc2ccccc2)cc1,inactive
21,O=C(NCC(c1cccs1)N1CCOCC1)c1cccnc1 (configuration not stated),inactive
22,COc1ccc(NC(=O)Nc2ccc3c(c2)CCC3)cc1OC,inactive
23,COc1cc(C2(c3ccc(O)c(OC)c3)C(=O)Nc3c(Br)cc(Br)cc32)ccc1O,"inconclusive [activator, single point]"
24,COc1ccc(C(=O)COC(=O)CN2CC(=O)Oc3ccccc32)cc1Br,"inconclusive [activator, full curve]"
